In PubChem BioAssay AID463173 (ICCB-Longwood Screening Facility, Harvard Medical School, 2010) one finds survival data, which are given here for 58 compounds.

Hit rate of the full screen: of about 52,000 compounds, about 4,300 (8.3%) were called active. Rule as the data show it: active = survival mostly below about 52% (no sharp cut-off); inactive = mostly above about 56%. The list shows a part of the results.

The experiment deals with DeltatarO mutant. As to the kind of experiment: growth inhibition of S. aureus wild type versus tarO mutant, primary screen, teichoic acid synthesis inhibitors, RN4220, OD600 (AID 463173). The following applies: OD600, 18 h, stronger effect = lower value, screened at 18.75 µg/mL (by protocol).
Regarding `C=CC(=O)NC(C)(C)Cc1ccccc1`, the survival is inactive: 104%. Turning to `CCC1(CC)Cc2ccccc2-c2nc(NCCCO)[nH]c(=O)c21`, the survival is inactive: 82%. Consider `CCCc1cc(=O)[nH]c(Nc2cc(C)ccc2OC)n1`, for which the survival is inactive: 73%.

With `CC(Sc1nnc2ccc3ccccc3n12)C(=O)Nc1ccc(Cl)cc1` (stereo not drawn), the survival was inactive: 76%. Consider `COc1cccc(CCNC(=O)c2c(O)nc3c(C)cccn3c2=O)c1`, for which the survival was inactive: 108%.

On to `O=C(NCCCN1CCOCC1)c1cc2ccccc2oc1=O`, for which the survival was inactive: 94%.

Turning to `Cc1nc2ccn(Cc3ccccc3)c(=O)c2cc1C(=O)N1CCN(c2ccc(F)cc2)CC1`, the survival is inactive: 95%.

As for `COc1ccccc1NC(=O)Cn1c(SCC(=O)Nc2ccc(F)cc2)nc2ccccc21`, the survival is inactive: 94%. For `CCc1ccc(NC(=O)CC2C(=O)N(c3cccc(OC)c3)C(=O)N2Cc2ccc(F)cc2)cc1` (stereo not drawn) the value was inactive: 94%.

In the case of `Cc1cc2ccc(C)c(C)c2nc1SCC#N`, the survival is inactive: 94%.

`Cc1ccc(-n2c3c(cc(C(=O)Nc4ccccc4C(N)=O)c2=O)C(=O)CC(C)(C)C3)cc1`: the survival was inactive: 49%. For `OCC(O)CNC(=S)NC1CCCCC1` (stereo not drawn) the value was inactive: 93%; for `COc1ccc(C2=Nc3ccccc3NC(c3cccs3)=N2)cc1`, inactive: 55%; for `CN(C)CCNC(=O)CN1C(=O)COc2ccc(S(=O)(=O)N3CCCC3)cc21`, inactive: 85%. For `Cc1cc(C)c(NC(=O)CSc2ccc(-c3ccccn3)nn2)c(C)c1`, the survival is inactive: 106%. The same measure for `CCOc1ccccc1NC(=O)c1c(NC(=O)COc2ccccc2)sc2c1CCCC2`: inactive: 66%; for `O=C1CC(c2ccccc2)Sc2ccccc2N1Cc1ccc(F)cc1` (stereo not drawn): active: -2%.

On to `Cc1cccc(N2CCN(C(c3cc4cc5c(cc4[nH]c3=O)OCO5)c3nnnn3CC3CCCO3)CC2)c1C` (stereo not drawn), for which the survival is inactive: 79%. For `COc1ccc(NC(=O)CSc2nccn2Cc2ccc3c(c2)OCO3)cc1` the value was inactive: 58%; for `COc1ccc(C)cc1NC(=O)C(=O)NCC(c1cccnc1)N1CCc2ccccc21` (stereo not drawn), inactive: 56%. The same measure for `CC(C)CNS(=O)(=O)c1ccc(S(=O)(=O)N2CCCC(C(=O)NC3CCCCC3)C2)cc1` (stereo not drawn): inactive: 75%; for `Cc1ccc(CNC(=O)CSc2nc3ccsc3c(=O)n2Cc2ccccc2F)cc1`: inactive: 128%; for `Cc1ccc(-n2cc(-c3ccccc3)c3c(N4CCCCC4)ncnc32)cc1`: inactive: 78%. On to `COc1ccccc1CNC(=O)c1c[nH]c2ccc(S(=O)(=O)Nc3cc(C)cc(C)c3)cc2c1=O`, for which the survival was inactive: 89%. For `CCCOc1ccc(CNC(=O)CCCn2ncn3c(cc4sc(CC)cc43)c2=O)cc1` the value was inactive: 85%; for `Cc1ccc(-c2cc(C(=O)Nc3ccc(SC(F)F)cc3)no2)cc1F`, inactive: 47%.

Consider `COc1cccc(NC(=O)CCC(=O)N2Cc3ccccc3Oc3ncccc32)c1`, for which the survival was inactive: 92%.

As to `CCNS(=O)(=O)c1ccc(NC(=O)CSc2nc(-c3ccco3)cc(C(F)(F)F)n2)cc1`, the survival is active: 36%. The same measure for `CCCOc1ccc(NC(=O)CC2C(=O)N(c3ccccc3)C(=O)N2Cc2ccco2)cc1` (stereo not drawn): inactive: 124%; for `Cc1ccc(NC(=O)C(Cc2ccccc2)NS(=O)(=O)c2ccc3c(c2)c(=O)n(C)c(=O)n3C)c(C)c1` (stereo not drawn): inactive: 76%. The same measure for `Cc1ccc(S(=O)(=O)N2CCN(C(=O)c3cc(-c4ccc(Br)cc4)n[nH]3)CC2)c(C)c1`: inactive: 79%; for `CCN(CC)c1ccc(NC(=O)c2cccn2-c2nnc(N3CCCCC3)s2)c(C)c1`: inactive: 83%; for `COC(=O)C1(CCSC)NC(c2ccc(N(C)C)cc2)C2C(=O)N(C)C(=O)C21` (stereo not drawn): inactive: 92%. Turning to `O=C(CSc1ncccn1)NCCC1=CCCCC1`, the survival was inactive: 104%. On to `Cc1cc(N2CCCCC2)nc2ccc(NC(=O)CCC(=O)N3CCN(c4ccccc4)CC3)cc12`, for which the survival is inactive: 62%. As for `O=C(CSCc1ccc(F)cc1)N1CCc2c([nH]c3ccccc23)C1c1ccc(Cl)cc1` (stereo not drawn), the survival was inactive: 82%. For `COc1ccc(NC(=O)CN2C(=O)c3cccnc3Sc3ccccc32)cc1OC` the value was inactive: 91%. For `CC(=O)NC(Cc1ccccc1)C(=O)NC1CCN(c2nnnn2-c2ccccc2)CC1` (stereo not drawn) the value was inactive: 105%. The same measure for `CC1=C(C(=O)Nc2cc(Cl)ccc2C)C(c2cccs2)n2ncnc2N1` (stereo not drawn): inactive: 118%; for `Cc1cccc(N2CCN(C(=O)c3ccc(Nc4nc5ccccc5n5nnnc45)cc3)CC2)c1C`: inactive: 96%. As for `CCOC(=O)c1ccc(NC(=O)C2=C(C)Nc3nc(CCCO)nn3C2c2ccc(OC)cc2)cc1` (stereo not drawn), the survival is inactive: 73%. For `Cc1cccc(NC(=O)C(=O)NCCc2csc(-c3ccc(F)cc3)n2)c1C` the value was inactive: 83%.

For the compound `CCN(C(=O)c1cn(CC)c(=O)c2cc(OC)c(OC)cc12)c1ccccc1F`, the survival was inactive: 174%. Consider `CCc1ccccc1NC(=O)c1noc2c1CC(C(C)(C)C)CC2` (stereo not drawn), for which the survival is active: -6%.

As to `COc1ccc(CCC(=O)NC2CC(=O)N(c3ccc(OC)cc3)C2)cc1` (stereo not drawn), the survival was inactive: 87%.

Take `Cc1cc(C)c2c(=O)cc(CSc3n[nH]c(C)n3)[nH]c2c1`: the survival was inactive: 71%. The same measure for `O=c1[nH]cc(N2CCOCC2)c(=O)[nH]1`: inactive: 78%; for `N#CCCNc1nncs1`: inactive: 73%. As for `CCOc1ccc(N(CC)C(=O)c2cc3c(s2)-c2ccccc2OC3)cc1`, the survival was inactive: 76%. In the case of `CC1CCN(c2nc3ccc(C(=O)N4CCN(c5ccccc5)CC4)cc3s2)CC1`, the survival is inactive: 72%. The same measure for `CCC(=O)N1CCc2cc(CNC(=O)c3ccc(F)cc3)ccc21`: inactive: 73%; for `Cc1ccc(-c2nc3sccn3c2Nc2ccc(C)c(C)c2)cc1`: active: 36%. For `CCOc1ccccc1-n1nnnc1SCC(=O)c1cc(Cl)ccc1OC` the value was inactive: 97%. The same measure for `COc1cc(C2C(=O)N(C3CCCCC3)CC(=O)N2C2CCCCC2)ccc1OC(C)C` (stereo not drawn): inactive: 62%; for `COc1ccc(CCNC(=O)C(C)n2c(=O)cc(-c3ccccc3)c3c(C)nn(C)c32)cc1OC` (stereo not drawn): inactive: 94%; for `CCSc1nc(-c2ccccc2F)nc2c1Cc1c(CO)cnc(C)c1O2`: active: 52%. Take `COC(=O)c1cc2occc2n1CC(=O)Nc1ccc(N(C)C)cc1`: the survival is inactive: 85%. Turning to `Cc1ccc(CNC(=O)Cn2c(=O)n(-c3ccc(C)cc3)c(=O)c3c2c2cc(C)ccc2n3C)cc1`, the survival was inactive: 129%.
